For 25 compounds, cell count results are on record in the supplement of paper PMC4604168 (melanoma cell lines).

The structures appear in SMILES notation. This is one part of the list. Single values are uncertain, as repeats are few or missing.

What all share (assay): cell count relative to DMSO control; melanoma cells; higher = more viable cells
Holding throughout (conditions): library dose: low library concentration; 72 h

The subject of test [1] is WM115.
The test system of test [2] is WM1716.
Test [3] has as its system WM1745.
Test [4] deals with WM3526.
The subject of test [5] is WM3619.
Test [6] relates to WM451Lu.
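Also: cell number obtained by counting DAPI-stained nuclei in high-throughput microscope images with image analysis software, screen run in 1,536-well plates.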

Take `C=C(c1ccc(C(=O)O)cc1)c1cc2c(cc1C)C(C)(C)CCC2(C)C` [Bexarotene] + COc1ccc2c(c1)CCC1C2CCC2(C)C(NCCCCCCN3C(=O)C=CC3=O)CCC12 [U73122] (first compound 2 µM, partner dose 0.4 µM): the cell count was found to be 92.5% in test [1]; 77.5% in test [2]; 104% in test [3]; 94.9% in test [4]; 102% in test [5]; 105% in test [6].
Consider `CS(=O)(=O)c1ccc(C(=O)Nc2ccc(Cl)c(-c3ccccn3)c2)c(Cl)c1` [vismodegib] + C=CCNC1=C2C[C@@H](C)C[C@H](OC)[C@H](O)[C@@H](C)/C=C(\C)[C@H](OC(N)=O)[C@@H](OC)/C=C\C=C(/C)C(=O)NC(=CC1=O)C2=O [Tanespimycin] (first compound 1 µM, partner dose 0.002 µM), for which the cell count in test [1] came to 96.3%; in test [2] it was 105%; in test [3], 91.7%; in test [4], 99.9%; in test [5], 112%; in test [6], 93.1%.
As for `NC1(c2ccc(-c3nc4ccn5c(=O)[nH]nc5c4cc3-c3ccccc3)cc2)CCC1` + Cc1cc([N+](=O)[O-])ccc1NS(=O)(=O)c1cc(Cl)ccc1Cl [FH535] (first compound 0.4 µM, partner dose 1 µM), the cell count in test [1] came out at 68.6%; in test [2], 109%; in test [3] it was 96%; in test [4] it was 81.1%; in test [5], 96.6%; in test [6], 100%.
As to `NC1(c2ccc(-c3nc4ccn5c(=O)[nH]nc5c4cc3-c3ccccc3)cc2)CCC1` + CC(C)CCN1c2nc(Nc3cc(F)c(O)c(F)c3)ncc2N(C)C(=O)C1C [BID1870] (first compound 0.4 µM, partner dose 0.2 µM), the cell count in test [1] turned out to be 70.5%; in test [2], 80.6%; in test [3], 94.4%; in test [4], 81.2%; in test [5], 83.1%; in test [6], 102%.
On to `CN(c1ncccc1CNc1nc(Nc2ccc3c(c2)CC(=O)N3)ncc1C(F)(F)F)S(C)(=O)=O` + COc1cc2c(Oc3ccc4[nH]c(C)cc4c3F)ncnc2cc1OCCCN1CCCC1 [cediranib] (first compound 0.08 µM, partner dose 0.4 µM), for which the cell count in test [1] worked out at 86.6%; in test [2] it was 84.1%; in test [3] it was 85.2%; in test [4] it was 76.3%; in test [5], 104%; in test [6], 71.4%.
As to `NC1(c2ccc(-c3nc4ccn5c(=O)[nH]nc5c4cc3-c3ccccc3)cc2)CCC1` + COc1ccc(Cl)c(Nc2nc3ccccc3nc2NS(=O)(=O)c2cccc(NC(=O)C(C)(C)N)c2)c1 [XL147] (first compound 0.4 µM, partner dose 0.8 µM), the cell count in test [1] was 74%; in test [2] it was 90.1%; in test [3], 90.5%; in test [4] it was 78%; in test [5], 92.6%; in test [6], 91.3%.
For `CCCS(=O)(=O)Nc1ccc(F)c(C(=O)c2c[nH]c3ncc(Cl)cc23)c1F` + O=C(CCCCCCC(=O)Nc1ccccc1)NO [vorinostat] (first compound 0.08 µM, partner dose 0.08 µM), the cell count in test [1] was found to be 109%; in test [2], 130%; in test [3], 110%; in test [4], 72.6%; in test [5] it was 91.8%; in test [6] it was 103%.
`CCCS(=O)(=O)Nc1ccc(F)c(C(=O)c2c[nH]c3ncc(Cl)cc23)c1F` + CC(=O)c1c(C)c2cnc(Nc3ccc(N4CCNCC4)cn3)nc2n(C2CCCC2)c1=O [palbociclib] (first compound 0.08 µM, partner dose 0.04 µM): the cell count in test [1] is 78%; in test [2], 84.8%; in test [3], 91.5%; in test [4], 54.9%; in test [5], 57.7%; in test [6] it was 75%.
For the compound `C=C(c1ccc(C(=O)O)cc1)c1cc2c(cc1C)C(C)(C)CCC2(C)C` [Bexarotene] + Clc1ccc(Nc2nnc(Cc3ccncc3)c3ccccc23)cc1 [vatalanib] (first compound 2 µM, partner dose 2 µM), the cell count was determined as 91.2% in test [1]; 89% in test [2]; 102% in test [3]; 93.6% in test [4]; 90.7% in test [5]; 98.5% in test [6].
For `CS(=O)(=O)c1ccc(C(=O)Nc2ccc(Cl)c(-c3ccccn3)c2)c(Cl)c1` [vismodegib] + NCC(=O)Nc1ccc(-n2nc(C(F)(F)F)cc2-c2ccc3c(ccc4ccccc43)c2)cc1 [OSU03012] (first compound 1 µM, partner dose 1 µM), the cell count in test [1] was 101%; in test [2], 94.5%; in test [3], 116%; in test [4], 58.4%; in test [5], 92.8%; in test [6] it was 60.8%.
Consider `C=C(c1ccc(C(=O)O)cc1)c1cc2c(cc1C)C(C)(C)CCC2(C)C` [Bexarotene] + O=C(O)C(=O)Nc1sc2c(c1C(=O)O)CCNC2 [TCS401] (first compound 2 µM, partner dose 1.66667 µM), for which the cell count in test [1] was 94.6%; in test [2] it was 78.9%; in test [3] it was 89.2%; in test [4], 77.2%; in test [5], 99.9%; in test [6], 86.5%.
With `C=C(c1ccc(C(=O)O)cc1)c1cc2c(cc1C)C(C)(C)CCC2(C)C` [Bexarotene] + Cc1ccc(NC(=O)c2cccc(N(C)C)c2)cc1NC(=O)c1ccc(O)cc1 [ZM336372] (first compound 2 µM, partner dose 2 µM), the cell count amounted to 88.5% in test [1]; 101% in test [2]; 88% in test [3]; 92.5% in test [4]; 84.5% in test [5]; 89.9% in test [6].
As to `CN(c1ncccc1CNc1nc(Nc2ccc3c(c2)CC(=O)N3)ncc1C(F)(F)F)S(C)(=O)=O` + COc1cc2ncnc(Nc3ccc(Oc4ccccc4)cc3)c2cc1OC [SrcI1] (first compound 0.08 µM, partner dose 2 µM), the cell count turned out to be 90.1% in test [1]; 102% in test [2]; 73.9% in test [3]; 92.3% in test [4]; 101% in test [5]; 52.1% in test [6].
For `CN(c1ncccc1CNc1nc(Nc2ccc3c(c2)CC(=O)N3)ncc1C(F)(F)F)S(C)(=O)=O` + NC1(c2ccc(-c3nc4ccn5c(=O)[nH]nc5c4cc3-c3ccccc3)cc2)CCC1 [MK2206] (first compound 0.08 µM, partner dose 0.4 µM), the cell count worked out at 59.5% in test [1]; 61.1% in test [2]; 86.9% in test [3]; 72.3% in test [4]; 91.6% in test [5]; 68.6% in test [6].
`C=C(c1ccc(C(=O)O)cc1)c1cc2c(cc1C)C(C)(C)CCC2(C)C` [Bexarotene] + CC(C)(C)c1cnc(CSc2cnc(NC(=O)C3CCNCC3)s2)o1 [SNS-032] (first compound 2 µM, partner dose 0.01 µM): the cell count was found to be 114% in test [1]; 87.8% in test [2]; 112% in test [3]; 93.9% in test [4]; 105% in test [5]; 86.3% in test [6].
Turning to `NC1(c2ccc(-c3nc4ccn5c(=O)[nH]nc5c4cc3-c3ccccc3)cc2)CCC1` + OCCn1cc(-c2cnc3nnn(Cc4ccc5ncccc5c4)c3n2)cn1 [PF04217903] (first compound 0.4 µM, partner dose 1 µM), the cell count in test [1] amounted to 84.9%; in test [2] it was 96.5%; in test [3], 96.1%; in test [4], 63.2%; in test [5], 94.9%; in test [6], 108%.
On to `CS(=O)(=O)c1ccc(C(=O)Nc2ccc(Cl)c(-c3ccccn3)c2)c(Cl)c1` [vismodegib] + Cc1nc(Nc2ncc(C(=O)Nc3c(C)cccc3Cl)s2)cc(N2CCN(CCO)CC2)n1 [dasatanib] (first compound 1 µM, partner dose 0.004 µM), for which the cell count in test [1] is 80.1%; in test [2], 90.8%; in test [3], 76%; in test [4], 98%; in test [5], 88.4%; in test [6], 70.2%.
Regarding `C=C(c1ccc(C(=O)O)cc1)c1cc2c(cc1C)C(C)(C)CCC2(C)C` [Bexarotene] + O=S(=O)(c1ccccc1)N(CC(F)(F)F)c1ccc(C(O)(C(F)(F)F)C(F)(F)F)cc1 [T0901317] (first compound 2 µM, partner dose 1.4 µM), the cell count in test [1] turned out to be 88.8%; in test [2] it was 70.5%; in test [3], 68.1%; in test [4], 82.9%; in test [5] it was 94.9%; in test [6], 80.6%.
With `CS(=O)(=O)c1ccc(C(=O)Nc2ccc(Cl)c(-c3ccccn3)c2)c(Cl)c1` [vismodegib] + O=C1NC(=O)/C(=C/c2ccc(-c3ccc(F)cc3O)o2)S1 [AS252424] (first compound 1 µM, partner dose 1 µM), the cell count stood at 94% in test [1]; 96.7% in test [2]; 84.6% in test [3]; 102% in test [4]; 120% in test [5]; 75.3% in test [6].
Take `CS(=O)(=O)c1ccc(C(=O)Nc2ccc(Cl)c(-c3ccccn3)c2)c(Cl)c1` [vismodegib] + Nc1ccn([C@@H]2O[C@H](CO)[C@@H](O)C2(F)F)c(=O)n1 [gemcitabine] (first compound 1 µM, partner dose 0.0004 µM): the cell count was determined as 103% in test [1]; 124% in test [2]; 94.7% in test [3]; 123% in test [4]; 80.9% in test [5]; 109% in test [6].
For the compound `CS(=O)(=O)c1ccc(C(=O)Nc2ccc(Cl)c(-c3ccccn3)c2)c(Cl)c1` [vismodegib] + COc1cc(N2CCC(N3CCN(C)CC3)CC2)ccc1Nc1ncc(Cl)c(Nc2ccccc2S(=O)(=O)C(C)C)n1 [NVP-TAE684] (first compound 1 µM, partner dose 0.08 µM), the cell count in test [1] came out at 95.3%; in test [2], 95.5%; in test [3], 83.5%; in test [4], 104%; in test [5], 98.8%; in test [6], 86.8%.
On to `CN(c1ncccc1CNc1nc(Nc2ccc3c(c2)CC(=O)N3)ncc1C(F)(F)F)S(C)(=O)=O` + c1cc(-c2cnn3cc(-c4ccc(OCCN5CCCCC5)cc4)cnc23)ccn1 [Dorsomorphin] (first compound 0.08 µM, partner dose 0.4 µM), for which the cell count in test [1] amounted to 76.5%; in test [2], 78.5%; in test [3], 80%; in test [4], 82.9%; in test [5], 78.4%; in test [6], 79.6%.
For the compound `CN(c1ncccc1CNc1nc(Nc2ccc3c(c2)CC(=O)N3)ncc1C(F)(F)F)S(C)(=O)=O` + COc1ccc(Cl)c(Nc2nc3ccccc3nc2NS(=O)(=O)c2cccc(NC(=O)C(C)(C)N)c2)c1 [XL147] (first compound 0.08 µM, partner dose 0.8 µM), the cell count was determined as 79.9% in test [1]; 79.3% in test [2]; 65.4% in test [3]; 91.9% in test [4]; 90.5% in test [5]; 47.2% in test [6].
As for `CCCS(=O)(=O)Nc1ccc(F)c(C(=O)c2c[nH]c3ncc(Cl)cc23)c1F` + O=S(=O)(c1ccccc1)N(CC(F)(F)F)c1ccc(C(O)(C(F)(F)F)C(F)(F)F)cc1 [T0901317] (first compound 0.08 µM, partner dose 1.4 µM), the cell count is 93.2% in test [1]; 112% in test [2]; 87.7% in test [3]; 64% in test [4]; 95.3% in test [5]; 93.4% in test [6].
For `CS(=O)(=O)c1ccc(C(=O)Nc2ccc(Cl)c(-c3ccccn3)c2)c(Cl)c1` [vismodegib] + COc1cc2ncnc(Nc3ccc(Oc4ccccc4)cc3)c2cc1OC [SrcI1] (first compound 1 µM, partner dose 2 µM), the cell count in test [1] turned out to be 104%; in test [2] it was 119%; in test [3], 94.9%; in test [4] it was 99.4%; in test [5] it was 91.4%; in test [6], 107%.
